The test deals with Plasmodium falciparum NF54/iGP1_RE9H ulg8 stage V gametocytes. The test can be described thus: gametocyte viability (luciferase signal relative to DMSO control) (% of DMSO control); higher = less gametocytocidal activity, active = 50 or less. The following applies: exposure time: 72 h. In short, it runs like this:
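Gametocyte viability is reported relative to the average of DMSO vehicle wells on the same plate. The assay used day-12 stage V NF54/iGP1_RE9Hulg8 gametocytes at ~2.5% gametocytemia and 3% hematocrit, in 0.5% Albumax II medium, added to 96-well plates of compounds spotted in nanolitre volumes for final 10 µM or 1 µM, one well each. After 72 h at 37 °C, 90 µl was mixed with 10 µl D-luciferin (30 mg/ml), and luminescence was recorded with an IVIS Lumina II.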

The record followed here is the supplement of paper PMC12297408.

Where a name gives a salt, the structure may show the parent alone. The campaign covered roughly 1,300 compounds. About 40 (3%) showed activity. The list shows a part of the results.

In the case of `CCOC(=O)C1=C(C)NC(C)=C(C(=O)OC)C1c1cccc([N+](=O)[O-])c1` (stereo not given) [Nitrendipine], the gametocyte viability is inactive: 90.3 (concentration: 1 µM) and inactive: 93.3 (concentration: 10 µM).

Consider `CC(CN1c2ccccc2Sc2ccccc21)N(C)C` (stereo not given) [Promethazine hydrochloride], for which the gametocyte viability (concentration: 1 µM) is inactive: 85.7 and the gametocyte viability (concentration: 10 µM) is inactive: 87.3.

On to `NS(=O)(=O)c1cc2c(cc1C(F)(F)F)NC(Cc1ccccc1)NS2(=O)=O` (stereo not given) [Bendroflumethiazide], for which the gametocyte viability by setting is: (concentration: 1 µM) inactive: 91.6; (concentration: 10 µM) inactive: 92.3.

Regarding `O=C(c1ccc(OCCN2CCCCC2)cc1)c1c(-c2ccc(O)cc2)sc2cc(O)ccc12` [Raloxifene hydrochloride], the gametocyte viability by setting is: (concentration: 1 µM) inactive: 79.9; (concentration: 10 µM) inactive: 59.4.

As to `C=C(NC(=O)C(=C)NC(=O)c1csc(C2=N[C@@H]3c4csc(n4)[C@H]4NC(=O)c5csc(n5)[C@H]([C@](C)(O)[C@@H](C)O)NC(=O)[C@H]5CSC(=N5)/C(=C/C)NC(=O)[C@H]([C@@H](C)O)NC(=O)c5csc(n5)[C@]3(CC2)NC(=O)[C@H](C)NC(=O)C(=C)NC(=O)[C@H](C)NC(=O)[C@H]([C@@H](C)CC)N[C@@H]2C=Cc3c([C@H](C)O)cc(nc3[C@H]2O)C(=O)O[C@@H]4C)n1)C(N)=O` [Thiostrepton], the gametocyte viability is, setting by setting: (concentration: 1 µM) inactive: 101; (concentration: 10 µM) inactive: 104.

`CC(=C(CCO)SSCC1CCCO1)N(C=O)Cc1cnc(C)nc1N` (stereo in doubt) [Fursultiamine Hydrochloride]: the gametocyte viability (concentration: 1 µM) is inactive: 83.6 and the gametocyte viability (concentration: 10 µM) is inactive: 84.6.

Take `CCC(C)(CN(C)C)OC(=O)c1ccccc1` (stereo not given) [Amyleine hydrochloride]: the gametocyte viability is, setting by setting: (concentration: 1 µM) inactive: 103; (concentration: 10 µM) inactive: 95.8.

On to `NC(=O)c1cccnc1` [Nicotinamide], for which the gametocyte viability is inactive: 85.7 (concentration: 1 µM) and inactive: 82.8 (concentration: 10 µM).

Consider `Cn1c(=O)c2c(ncn2CC(O)CO)n(C)c1=O` (stereo not given) [Diprophylline], for which the gametocyte viability runs as follows: (concentration: 1 µM) inactive: 76.5; (concentration: 10 µM) inactive: 87.9.

In the case of `CNC1(C)C2CCC(C2)C1(C)C` (stereo not given) [Mecamylamine hydrochloride], the gametocyte viability (concentration: 1 µM) is inactive: 93.8 and the gametocyte viability (concentration: 10 µM) was inactive: 94.3.

Regarding `CC1=C(C(=O)O)N2C(=O)[C@@H](NC(=O)[C@H](N)c3ccc(O)cc3)[C@H]2SC1` [Cefadroxil], the gametocyte viability reads like this: (concentration: 1 µM) inactive: 86.7; (concentration: 10 µM) inactive: 86.8.

In the case of `C=CCN1CCCC1CNC(=O)c1cc2nn[nH]c2cc1OC` (stereo not given) [Alizapride HCl], the gametocyte viability was inactive: 82.2 (concentration: 1 µM) and inactive: 84.7 (concentration: 10 µM).

For `CC(C)(Oc1ccc(C2CC2(Cl)Cl)cc1)C(=O)O` (stereo not given) [Ciprofibrate], the gametocyte viability runs as follows: (concentration: 1 µM) inactive: 94.2; (concentration: 10 µM) inactive: 94.6.

With `Nc1ccc(S(N)(=O)=O)cc1` [Sulfanilamide], the gametocyte viability by setting is: (concentration: 1 µM) inactive: 83.6; (concentration: 10 µM) inactive: 85.5.

For `CNCC[C@@H](Oc1cccc2ccccc12)c1cccs1` [(R)-Duloxetine hydrochloride], the gametocyte viability was inactive: 79.7 (concentration: 1 µM) and inactive: 63.4 (concentration: 10 µM).

Take `CC(CCc1ccc(O)cc1)NCCc1ccc(O)c(O)c1` (stereo not given) [Dobutamine hydrochloride]: the gametocyte viability reads like this: (concentration: 1 µM) inactive: 78.1; (concentration: 10 µM) inactive: 81.7.

On to `CCC(C)(C)c1ccc(CC(C)CN2C[C@@H](C)O[C@@H](C)C2)cc1` (stereo not given in full) [Amorolfine hydrochloride], for which the gametocyte viability (concentration: 1 µM) is inactive: 79.2 and the gametocyte viability (concentration: 10 µM) was inactive: 71.3.

With `CC[C@]12CCCN3CCc4c(n(c5ccccc45)[C@@](O)(C(=O)OC)C1)[C@@H]32` [Vincamine], the gametocyte viability (concentration: 1 µM) is inactive: 89.5 and the gametocyte viability (concentration: 10 µM) was inactive: 89.

Consider `Cc1ccc(O)c([C@H](CCN(C(C)C)C(C)C)c2ccccc2)c1` [Tolterodine tartrate], for which the gametocyte viability by setting is: (concentration: 1 µM) inactive: 98.5; (concentration: 10 µM) inactive: 88.

`CCCCOc1ccc(CC(=O)NO)cc1` [Bufexamac]: the gametocyte viability was inactive: 87.9 (concentration: 1 µM) and inactive: 94.5 (concentration: 10 µM).

Regarding `CC(=O)OC(C)C[N+](C)(C)C` (stereo not given) [Methacholine chloride], the gametocyte viability was inactive: 88.9 (concentration: 1 µM) and inactive: 82.6 (concentration: 10 µM).

As for `C=CCc1ccccc1OCC(O)CNC(C)C` (stereo not given) [Alprenolol hydrochloride], the gametocyte viability by setting is: (concentration: 1 µM) inactive: 88.9; (concentration: 10 µM) inactive: 88.7.

For `NC[C@H]1CC[C@H](C(=O)O)CC1` [Tranexamic acid], the gametocyte viability was inactive: 82.3 (concentration: 1 µM) and inactive: 79.1 (concentration: 10 µM).

Turning to `O=C(O)c1cc(=O)c2c(OCC(O)COc3cccc4oc(C(=O)O)cc(=O)c34)cccc2o1` [Cromolyn disodium salt], the gametocyte viability is, setting by setting: (concentration: 1 µM) inactive: 96.7; (concentration: 10 µM) inactive: 93.2.

With `Cc1c(O)cccc1C(=O)N[C@@H](CSc1ccccc1)[C@H](O)CN1C[C@H]2CCCC[C@H]2C[C@H]1C(=O)NC(C)(C)C` [Nelfinavir mesylate], the gametocyte viability is inactive: 90.7 (concentration: 1 µM) and inactive: 70.6 (concentration: 10 µM).

In the case of `CCSc1ccc2c(c1)N(CCCN1CCN(C)CC1)c1ccccc1S2` [Thiethylperazine dimalate], the gametocyte viability (concentration: 1 µM) was inactive: 83.3 and the gametocyte viability (concentration: 10 µM) is active: 32.4.

With `CN(C)CCC(c1ccccc1)c1ccccn1` (stereo not given) [Pheniramine maleate], the gametocyte viability (concentration: 1 µM) was inactive: 89.9 and the gametocyte viability (concentration: 10 µM) was inactive: 82.4.

`O=P(O)(O)C(O)(Cc1cccnc1)P(=O)(O)O` [Risedronic acid monohydrate]: the gametocyte viability was inactive: 81.3 (concentration: 1 µM) and inactive: 82.9 (concentration: 10 µM).

For the molecule `CCN(CC)C(=O)N1CCN(C)CC1` [Diethylcarbamazine citrate], the gametocyte viability was inactive: 82 (concentration: 1 µM) and inactive: 87.5 (concentration: 10 µM).

As to `CCN(CCCc1ccccc1)CCCc1ccccc1` [Alverine citrate salt], the gametocyte viability is inactive: 82.3 (concentration: 1 µM) and inactive: 82 (concentration: 10 µM).

As to `Clc1ccccc1C(c1ccccc1)(c1ccccc1)n1ccnc1` [Clotrimazole], the gametocyte viability was inactive: 86.5 (concentration: 1 µM) and inactive: 72.4 (concentration: 10 µM).

On to `Clc1ccc(COC(Cn2ccnc2)c2ccc(Cl)cc2Cl)cc1` (stereo not given) [Econazole nitrate], for which the gametocyte viability (concentration: 1 µM) was inactive: 92.6 and the gametocyte viability (concentration: 10 µM) is inactive: 83.2.

`C=CC[N@@+]12CC[C@@]34c5ccccc5N5/C=C6/[C@H]7C[C@H]8[C@@]9(CC[N@@+]8(CC=C)C/C7=C/CO)c7ccccc7N(/C=C(/[C@@H](C[C@@H]31)/C(=C\CO)C2)[C@H]54)[C@@H]69` [Alcuronium chloride]: the gametocyte viability (concentration: 1 µM) was inactive: 82.4 and the gametocyte viability (concentration: 10 µM) was inactive: 80.3.

As for `CCCC(C(=O)OCCN(CC)CC)(c1ccccc1)c1ccccc1` [Proadifen hydrochloride], the gametocyte viability reads like this: (concentration: 1 µM) inactive: 84.8; (concentration: 10 µM) inactive: 93.4.

`C=C1C(=O)O[C@H]2[C@H]1CC/C(C)=C/CC[C@@]1(C)O[C@@H]21` [Parthenolide]: the gametocyte viability is inactive: 90.4 (concentration: 1 µM) and inactive: 87.8 (concentration: 10 µM).
